Measurements as given in PMC4336329 (PLoS ONE, 2015).
Screen size: about 310,000 compounds; about 14,000 (4.5%) showed an effect of 50% or more. The effect is printed as a negative number. This is one part of the list.

molecular target: human ether-à-go-go-related gene (hERG) potassium channel (human, UniProt Q12809); assay: primary screen, population patch clamp on CHO cells stably expressing hERG
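Also: peak tail current of the secondary pulse compared with the same well before compound.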

human ether-à-go-go-related gene (hERG) potassium channel, sequence (Q12809 whole entry, looked up): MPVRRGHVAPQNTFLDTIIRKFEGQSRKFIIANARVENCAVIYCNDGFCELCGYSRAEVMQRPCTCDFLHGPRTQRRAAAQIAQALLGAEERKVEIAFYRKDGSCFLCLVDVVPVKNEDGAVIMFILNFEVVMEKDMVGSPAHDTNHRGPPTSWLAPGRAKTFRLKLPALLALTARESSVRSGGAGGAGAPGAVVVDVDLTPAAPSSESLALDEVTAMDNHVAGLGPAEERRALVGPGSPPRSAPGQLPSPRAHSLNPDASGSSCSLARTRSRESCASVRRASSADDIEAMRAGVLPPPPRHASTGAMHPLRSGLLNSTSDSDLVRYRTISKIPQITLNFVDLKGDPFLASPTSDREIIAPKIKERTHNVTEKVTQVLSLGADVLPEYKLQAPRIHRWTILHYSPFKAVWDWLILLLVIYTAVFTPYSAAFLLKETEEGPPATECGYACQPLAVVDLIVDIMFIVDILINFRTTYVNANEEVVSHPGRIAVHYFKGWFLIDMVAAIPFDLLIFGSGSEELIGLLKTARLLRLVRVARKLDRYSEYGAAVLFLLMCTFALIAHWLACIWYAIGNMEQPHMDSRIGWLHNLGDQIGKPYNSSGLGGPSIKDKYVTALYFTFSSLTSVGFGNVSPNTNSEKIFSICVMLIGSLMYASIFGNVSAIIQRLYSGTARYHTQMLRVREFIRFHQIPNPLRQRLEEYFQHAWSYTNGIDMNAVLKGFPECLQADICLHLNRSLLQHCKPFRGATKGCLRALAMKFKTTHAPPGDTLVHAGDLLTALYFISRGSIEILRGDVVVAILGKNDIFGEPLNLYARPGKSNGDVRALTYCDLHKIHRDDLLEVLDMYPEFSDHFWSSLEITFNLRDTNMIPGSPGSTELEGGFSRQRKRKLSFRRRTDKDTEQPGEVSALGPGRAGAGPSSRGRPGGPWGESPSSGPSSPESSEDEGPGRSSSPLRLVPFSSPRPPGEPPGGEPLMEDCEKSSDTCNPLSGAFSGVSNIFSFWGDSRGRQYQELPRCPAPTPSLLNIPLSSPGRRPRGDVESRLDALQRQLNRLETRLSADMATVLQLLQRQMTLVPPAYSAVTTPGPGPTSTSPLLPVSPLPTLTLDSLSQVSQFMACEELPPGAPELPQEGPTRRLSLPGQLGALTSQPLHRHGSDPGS

SMILES | hERG current change (%, negative = inhibition) at 10uM [%]
O=C(Nc1ccccc1)C1CCN(S(=O)(=O)c2ccc3c(c2)OCCO3)CC1 | 0.64
COCCN(C(=O)CCC(=O)Nc1nccs1)C(C(=O)NC(C)(C)C)c1ccc(Cl)cc1 (stereo not drawn) | -5.67
COc1ccccc1-c1noc(-c2ccccc2C(=O)NCc2ccco2)n1 | -23.7
Nc1c(-c2ccccc2)cnn1-c1ccc(C(=O)O)cc1 | -5.89
O=C(COC(=O)Cn1cc(C(F)(F)F)ccc1=O)Nc1ccccc1 | 11.9
Cc1nn(Cc2ccccc2)c(C)c1C(=O)NC1CCCc2ccccc21 (stereo not drawn) | -13.4
CN1CCN(S(=O)(=O)c2ccc(Cc3ccc(S(=O)(=O)N4CCN(C)CC4)cc3)cc2)CC1 | 1.53
CC(CN1C(C)CCCC1C)OC(=O)c1ccccc1Cl (stereo not drawn) | -26.8
CCc1ccc(/C=N/NC(=O)c2cc(-c3cccc([N+](=O)[O-])c3)n[nH]2)cc1 | -0.299
CN(c1nc2nonc2nc1NC1CC1)C1CCOC1 (stereo not drawn) | 11.3
CN(Cc1c(C(=O)N/N=C/c2ccc(O)cc2)nnn1-c1nonc1N)C1CCCCC1 | 8.26
O=C(CN1C(=O)C2CCCCC2C1=O)Nc1nccs1 (stereo not drawn) | 19.1
CCCn1c(SCC(=O)N2CCCC(C)C2)nnc1-c1ccccn1 (stereo not drawn) | 2.2
O=C(Cc1ccccc1)N1CCC(c2nc3ccccc3[nH]2)CC1 | -18.9
COc1cc(NS(=O)(=O)c2cc3[nH]c(=O)c(=O)[nH]c3cc2C)cc(OC)c1OC | 0.206
O=C(CC(C(=O)N1CCc2ccccc21)n1ccnc1)N1CCc2ccccc2C1 (stereo not drawn) | -49.7
O=C(CCSCc1ccc(Cl)cc1)NCc1cccnc1 | -23.5
NC(=S)Nc1nc2ccccc2[nH]c1=O | 9.15
O=C(/C(=N\Nc1ccc([N+](=O)[O-])cc1)Sc1nnnn1-c1ccccc1)c1ccccc1 | 17.9

SMILES | hERG current change (%, negative = inhibition) at 10uM [%]
Cc1cccc(OCCC(=O)OC(C)C(=O)Nc2ccc(Cl)cn2)c1 (stereo not drawn) | -36.7
CN1CCN(CCCNC(=O)c2cc3c(=O)oc4ccccc4c3s2)CC1 | -14.2
CCOc1ccc2noc3c2c1C(=O)c1ccccc1-3 | 11.3
COCCCN1CC(=O)N2C(c3cccc(OC)c3)c3[nH]c4ccccc4c3C[C@H]2C1=O (stereo partly drawn) | -14.3
Cn1ncc(Br)c1C(=O)N1CCOCC1 | -17.1
N#C/C(=C(/O)c1cccs1)c1nnc2n1CCCCC2 | 4.49
Cc1ccc(S(=O)(=O)CCC(=O)OCc2ccccc2F)cc1 | -1.21
CC(C)Oc1ccc(C(=O)/C=C2/C(=O)Nc3ccccc32)cc1 | 16.1
O=C(/C=C/c1ccc(-c2ccccc2)o1)c1ccccc1 | 3.87
Cc1ccc(S(=O)(=O)N2CCC(=O)N(CCOC(=O)Nc3ccc(F)cc3)CC2)cc1 | -34
COc1ccc(-c2c[n+](CC(=O)N3c4ccccc4Sc4ccccc43)c3n2CCC3)cc1.[Cl-] | -38.2
CNS(=O)(=O)c1ccc(C(=O)NCC(=O)NC(C)c2cccs2)cc1 (stereo not drawn) | -1.69
O=C(CSc1nc(-c2ccc(F)cc2)cs1)Nc1ccccn1 | 16.4
O=C(Nc1ccc2c(c1)OCO2)c1cc(-c2cccnc2)nc2ccccc12 | 0.957
CCOc1ccc(C(=O)Nc2ccccc2OC(F)F)cc1 | 0.00868
CCn1c2ccccc2c2cc(NC(=O)C(=O)NCC3CCCO3)ccc21 (stereo not drawn) | -6.57
CC(=O)Nc1nc(COc2ccccc2)cs1 | -4.04
CCS(=O)(=O)N1N=C(c2ccc(NS(C)(=O)=O)cc2)CC1c1ccccc1 (stereo not drawn) | -62.1
COc1ccc2nc(SCC(=O)Nc3ccccc3OC)[nH]c2c1 | 4.94

SMILES | hERG current change (%, negative = inhibition) at 10uM [%]
CCc1nnc(NC(=O)CCC(=O)N2CCN(c3cccc(Cl)c3)CC2)s1 | -10.4
O=C(Nc1cccc(C(F)(F)F)c1)C1CCCN(S(=O)(=O)c2cnc[nH]2)C1 (stereo not drawn) | -29.2
COc1ccc(S(=O)(=O)Nc2ccccc2C(=O)N2CCOCC2)cc1C | -0.937
Cc1cc(C)nc(Nc2ncc(O)n2-c2ccccc2)n1 | 11.1
Cc1ccc(Cn2ccc(NC(=O)c3cc(-c4ccco4)on3)n2)cc1 | -2.29
CCOc1ccc2[nH]c3nc(SCC(=O)NCC4CCCO4)nnc3c2c1 (stereo not drawn) | 5.01
CCOC(=O)c1c(NC(=O)c2ccc(Cl)cc2)csc1C | -0.689
C#CC[N+](C)(C)CC#Cc1ccc(C)cc1.[Br-] | 6.33
COc1cc2c(cc1NC(=O)CSc1ccc(Cl)cc1)oc1ccccc12 | -4.45
CCOC(=O)CN(C)Cc1c[nH]c2ccccc12 | 9.02
CN(Cc1ccsc1)C(=O)CCc1nnc(CCCc2ccccc2)o1 | -14.4
CC1C(=O)N2CCCc3cc(NC(=O)c4ccccc4C(F)(F)F)cc1c32 (stereo not drawn) | -0.754
CCOC(=O)c1c(C)n(C)c2cc(Br)c(O)c(O)c12 | 8.12
CCCc1nnc(NC(=O)CCC(=O)N2CCN(Cc3ccccc3)CC2)s1 | -6.65
Cc1cc(C(=O)N/N=C/c2ccccc2[N+](=O)[O-])c(C)o1 | 27.1
O=C(NCCN1CCOCC1)c1ccc(N2CCCC2)c([N+](=O)[O-])c1 | -16.1
N/C(=N\OC(=O)c1ccccc1)c1ccccn1 | 12.9
O=C(O)CSc1nnc2c(n1)[nH]c1ccccc12 | -1.12
O=C(CNS(=O)(=O)c1ccc(C(=O)N2CCOCC2)cc1)N1CCOCC1 | -1.35
